In all, about 44,000 compounds went through this assay and about 340 (0.77%) were called active. Another 5% or so got no clear call; they are omitted. The call rests on the fitted dose curve; in most records, active means well fitted inhibition curve with a large enough effect; inconclusive means small, poorly fitted or top-dose-only effect; inactive means flat fitted curve, though single readings scatter. The list shows a part of the results.
assay: Acumen qHTS Assay for Inhibitors of the mTORC1 Signaling Pathway in MEF (Tsc2-/-, p53-/-) Cells: Sytravon; conditions: phospho-rpS6 immunofluorescence/PI, 24 h; series mostly up to 38.3 µM; activity change, negative = inhibition: at the top concentration;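 further: plate controls were DMSO for no effect and rapamycin for full effect; nearly all actives have a fitted effect of over 50% in size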
How it was run: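 Tsc2-/-, p53-/- MEFs (empty-vector stable line) in DMEM + 10% FBS were treated with compounds 24 h at 37 degree Celsius, fixed, and immunostained for phospho-rpS6 (Alexa-488) with propidium iodide counterstain. Laser-scanning cytometry gave % positive cells, normalized against 7.5 nM rapamycin and DMSO.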

SMILES	activity change, negative = inhibition
COc1ccc(NS(=O)(=O)c2cc3[nH]c(=O)c(=O)[nH]c3cc2C)cc1OC	inactive: -9.18%
COc1ccc(Nc2cc(C(=O)NCCc3ccccc3)c3ccccc3n2)cc1OC	inactive: 3.65%
COc1ccc(OCCn2c(C3CC(=O)N(c4ccc(F)cc4)C3)nc3ccccc32)cc1 (stereo not drawn)	inactive: -0.415%
Cc1ccc(CNC(=O)Cn2ncc3c(C)n(Cc4ccc(Cl)cc4)c(C)c3c2=O)cc1	inactive: 1.43%
COc1ccccc1Nc1cc(C)nc2nc(-c3ccccc3)nn12	inactive: 0%
CCCCOC(=O)c1ccc(NS(=O)(=O)c2c(C)nc3scc(C)n3c2=O)cc1	inactive: -12.4%
CCCN(C(=O)Cn1ncc2c(=O)oc3ccccc3c21)c1cccc(C)c1	inactive: 2.2%
Cc1ccc(NC(=O)c2c(N3CCCC3=O)c3cc(C)ccc3n2C)c(C)c1	inactive: 1.25%
CCC(C)NC(=O)Cn1c(=O)n(Cc2ccc(C(=O)NCCCOC)cc2)c(=O)c2ccccc21 (stereo not drawn)	inactive: 2.97%
COC(=O)c1c(NC(=O)c2ccc(S(=O)(=O)N3CCCC(C)C3)cc2)sc2c1CCN(C(C)C)C2 (stereo not drawn)	inactive: 0.933%
CC(C)c1ccc(NC(=O)CSc2ncc3c(n2)-c2ccccc2N(C)S3(=O)=O)cc1	inactive: 11%
Cc1ccc(Cl)c2sc(N3CCN(C(=O)C4CC4)CC3)nc12	inactive: -2.82%
CSc1ccc(CNCc2c(C(=O)O)c(C)n(Cc3ccc(F)cc3Cl)c2C)cc1	inactive: -2.51%
Cc1ccccc1CNC(=O)c1c(C)oc2c1C1=NCCN1C=N2	inactive: -4.75%
Cc1ccccc1Cn1cc(S(=O)(=O)c2ccc(Cl)cc2)c(=O)c2cc3c(cc21)OCO3	inactive: 6.85%
Cc1c(NC(=O)c2nc3ccccc3n(C)c2=O)cccc1[N+](=O)[O-]	inactive: 10.2%
COc1cccc(N2CCN(C(=O)C3CCCN(S(=O)(=O)c4ccc(Br)s4)C3)CC2)c1 (stereo not drawn)	inactive: -18.9%
CCc1ccc(-n2c(=O)c3c4c(sc3n(Cc3ccc(F)cc3)c2=O)CCCC4)cc1	inactive: 1.93%
COc1ccc(CNC(=O)c2cccc(N3CCCS3(=O)=O)c2)cc1	inactive: -1.53%
O=C1[C@@H]2CSC(c3ccc(F)cc3)N2C(=O)N1c1ccc(Cl)cc1 (stereo partly drawn)	inactive: -3.04%
Nc1ncc(S(=O)(=O)NCc2cccc(Cl)c2)cn1	inactive: -9.19%
O=C(Cn1c(=O)n2nc(-c3ccccc3)nc2c2ccccc21)Nc1ccccc1C(F)(F)F	inactive: 1.33%
Cc1ccc2oc(=O)c3cnn(CC(=O)NCc4ccccc4Cl)c3c2c1	inactive: -4.79%
Cc1ccc(C)n1-c1nnc(N2CCC(C(=O)NCc3ccccc3Cl)CC2)s1	inactive: 1.59%

SMILES	activity change, negative = inhibition
Cc1ccc(-c2nc(CCNC(=O)C(=O)Nc3ccc(C)c(C)c3)cs2)cc1	inactive: -0.112%
CCCCC12CN3CC(C)(CN(C1)C3c1cc(Br)ccc1O)C2=O (stereo not drawn)	inactive: -1.98%
COc1ccc(NC(=O)c2ccc3nc(CCc4ccccc4)oc3c2)cc1	inactive: 2.89%
CC(=O)c1cc(-c2ccc(F)cc2)n(CCC(=O)NCc2ccccc2C)c1C	inactive: -3.73%
CS(=O)(=O)c1ccc2nc(NC(=O)CS(=O)(=O)c3ccc(Cl)cc3)sc2c1	inactive: 0.0121%
COc1ccccc1NC(=O)C1CCCN(c2nnc(C)c3c(C)n(-c4ccccc4)nc23)C1 (stereo not drawn)	inactive: -2.04%
Cc1ccc(N2CCN(c3nc4ccc(C)cc4n4nnnc34)CC2)c(C)c1	inactive: 0.202%
Cc1ccc(NC2=C(c3ccc(C(F)(F)F)cc3)C(=O)c3ccccc32)cc1F	inactive: -7.53%
CCOc1ccccc1NC(=O)CSc1nc2ccccc2c2nc(CCn3cncc3C)nn12	inactive: -0.95%
O=C(NCC(c1cccnc1)N1CCc2ccccc21)c1ccccc1Br (stereo not drawn)	inactive: 6.77%
CCCN(CCC)C(=O)Cn1c(=O)n(-c2cccc(C(F)(F)F)c2)c(=O)c2c(C)c(C)sc21	inactive: -6.12%
O=C(Cn1c(=O)n(Cc2ccco2)c(=O)c2cccnc21)Nc1ccccc1F	inactive: -1.34%
CCOc1cc(C(=O)Nc2ccc(-c3nc4cc(C)ccc4o3)cc2)cc(OCC)c1OCC	inactive: -5.97%
O=C(Nc1ccc2nc(SCC(=O)N3CCCC3)sc2c1)c1ccccc1	inactive: -2.34%
COc1cc2c(-c3ccccc3C)nc3c(c(C)nn3-c3ccccc3)c2cc1OC	inactive: 16.5%
Cc1ccc(OCC(=O)Nc2c(C(=O)c3ccccc3)oc3ccccc23)cc1C	inactive: 4.55%
CCc1ccc(NC(=O)CC2C(=O)N(c3cccc(C)c3)C(=O)N2Cc2cccs2)cc1 (stereo not drawn)	inactive: -1.08%
COc1ccc(CNC(=O)Cn2c(SCC(=O)N(C)c3ccccc3)nc3ccccc32)cc1	inactive: 0%
CCCCn1c(=O)n(-c2ccc(Br)cc2F)c(=O)c2c3c(sc21)CN(C(C)=O)CC3	inactive: -0.761%
CCOC(=O)c1noc2nc(C)n(CC(=O)Nc3cc(Cl)ccc3OC)c(=O)c12	inactive: -8.24%
COc1cc(C(=O)Nc2ccc3nn(-c4ccc(F)cc4)nc3c2)cc(OC)c1OC	inactive: 9.21%
Cc1csc2nc(COC(=O)c3ccc(NC(=O)COc4ccccc4F)cc3)cc(=O)n12	inactive: 1.4%
CC1=C(C(=O)OCC2CCCCC2)C(c2ccc(F)cc2F)CC(=O)N1 (stereo not drawn)	inactive: -26.6%
COc1ccccc1CNC(=O)C(=O)NCC(c1cccs1)S(=O)(=O)c1ccc(F)cc1 (stereo not drawn)	inactive: -4.09%
